Laboratory results as given in PubChem BioAssay AID624255 (Broad Institute, 2012).
Out of some 77,000 compounds screened, about 4,600 (6%) were called active. This list was built around the results that the source calls inconclusive (neither active nor inactive); the mix of calls is not that of the screen.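 Rule for the calls: active = mean inhibition above about 93%, with at least 55% of replicates each passing it (limit read from the data, passing the limit was not always enough); inconclusive = only one of those two conditions holds; inactive = neither condition holds.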

Test: T. cruzi intracellular proliferation inhibitors, primary screen, cell-based, beta-gal Tulahuen parasites, NIH3T3 host, luminescence (AID 624255)
Details: T. cruzi beta-gal in NIH3T3, GalScreen luminescence, 90 h; at 8.34 µM; hits give high values

Structure (SMILES)	inhibition
C/C=C/c1ccc([C@H]2[C@@H](C#N)N(S(=O)(=O)c3cccc(F)c3)[C@H]2CO)cc1	inactive: 94.7%
C[C@@H]1CN([C@@H](C)CO)C(=O)c2cc(NC(=O)Nc3ccc(C(F)(F)F)cc3)ccc2O[C@@H](C)CCCCO[C@H]1CN(C)Cc1ccc(C(F)(F)F)cc1	inconclusive: 88.3%
C/C=C/c1ccc2c(c1)O[C@H](CN(C)Cc1cccnc1)[C@H](C)CN([C@@H](C)CO)S2(=O)=O	inconclusive: 96.2%
Cc1ccc(S(=O)(=O)N(C)C[C@H]2OCCCC[C@@H](C)Oc3ccc(NS(=O)(=O)c4cccs4)cc3C(=O)N([C@H](C)CO)C[C@H]2C)cc1	inconclusive: 98%
COc1ccccc1C#Cc1ccc2c(c1)O[C@@H](CN(C)Cc1ccncc1)[C@H](C)CN([C@H](C)CO)S2(=O)=O	active: 121%
C[C@H]1CN([C@@H](C)CO)S(=O)(=O)c2ccc(C#CCN(C)C)cc2O[C@H]1CN(C)CC1CC1	active: 110%
COc1cccc(NC(=O)N2C[C@H](O)COC[C@H]3O[C@@H](CC(=O)NC4Cc5ccccc5C4)CC[C@@H]32)c1	active: 109%
Cc1ccc(S(=O)(=O)N(C)C[C@H]2Oc3c(cccc3N(C)C)C(=O)N([C@H](C)CO)C[C@@H]2C)cc1	inconclusive: 95.6%
COc1ccc(S(=O)(=O)Nc2ccc3c(c2)C(=O)N([C@@H](C)CO)C[C@H](C)[C@H](CN(C)Cc2ccc(C(=O)Nc4ccccc4N)cc2)O3)cc1	inactive: 55.5%
CNC[C@@H]1Oc2ccc(NC(=O)Cc3ccccc3)cc2C(=O)N([C@@H](C)CO)C[C@H]1C	inactive: 66.6%
C[C@@H]1CN([C@H](C)CO)S(=O)(=O)c2ccc(C#CCN(C)C)cc2O[C@H]1CN(C)Cc1ccccn1	inconclusive: 91.1%
CC(C)C#Cc1ccc([C@H]2[C@@H](C#N)N(C(=O)c3ccccn3)[C@H]2CO)cc1	inconclusive: 95%
O=S(=O)(N[C@@H]1CC[C@@H](CCNS(=O)(=O)c2ccccc2Cl)O[C@@H]1CO)c1ccccc1	inactive: -2.16%
CC(C)CC#Cc1cnc2c(c1)C(=O)N([C@H](C)CO)C[C@H](C)[C@H](CN(C)Cc1cccc(F)c1)O2	inconclusive: 89.7%
O=C(C[C@H]1CC[C@H]2[C@@H](COC[C@@H](O)CN2S(=O)(=O)c2ccccc2)O1)N[C@H]1CCN(Cc2ccccc2)C1	inactive: 84%
COc1ccc(C#Cc2ccc([C@@H]3[C@@H](CO)N4CCCCN(C(=O)Nc5ccccc5)C[C@@H]34)cc2)cc1	active: 111%
C[C@@H]1CN([C@@H](C)CO)C(=O)c2cc(NC(=O)Nc3ccc(C(F)(F)F)cc3)ccc2O[C@@H](C)CCCCO[C@H]1CN(C)Cc1ccc2c(c1)OCO2	inconclusive: 123%
C[C@@H]1CN([C@H](C)CO)C(=O)c2cc(NC(=O)C3CCCCC3)ccc2O[C@H]1CN(C)Cc1ccc(-c2ccccc2)cc1	inconclusive: 98.1%
C[C@@H]1CN([C@H](C)CO)C(=O)c2cccc(NC(=O)Nc3cccc4ccccc34)c2O[C@H]1CN(C)C(=O)Nc1cccc2ccccc12	inactive: 47.7%

Structure (SMILES)	inhibition
C[C@@H]1CCCCO[C@@H](CN(C)C(=O)CCC(F)(F)F)[C@H](C)CN([C@@H](C)CO)C(=O)c2cc(N(C)C)ccc2O1	inconclusive: 95.1%
CCCNC(=O)N(C)C[C@H]1Oc2cc(-c3cccnc3)ccc2S(=O)(=O)N([C@@H](C)CO)C[C@@H]1C	inconclusive: 95.1%
COc1cccc(S(=O)(=O)N(C)C[C@H]2Oc3cc(C#CCC(C)C)ccc3S(=O)(=O)N([C@H](C)CO)C[C@H]2C)c1	inconclusive: 86.8%
CN1CCN(C(=O)C[C@@H]2CC[C@H]3[C@@H](COC[C@H](O)CN3Cc3ccc(Oc4ccccc4)cc3)O2)CC1	inactive: -20%
CC(C)NC(=O)Nc1cccc2c1O[C@H](CN(C)Cc1ccc(Oc3ccccc3)cc1)[C@@H](C)CN([C@@H](C)CO)C2=O	inconclusive: 97.6%
C[C@@H]1CN([C@H](C)CO)C(=O)Cc2cc(NC(=O)Nc3cccc4ccccc34)ccc2O[C@H]1CN(C)Cc1ccc2c(c1)OCO2	inconclusive: 88%
Cc1ccc(S(=O)(=O)Nc2ccc3c(c2)C(=O)N([C@@H](C)CO)C[C@H](C)[C@@H](CN(C)CC2CC2)OCCCC[C@H](C)O3)cc1	inactive: 30.3%
C[C@H](CO)N1C[C@H](C)[C@H](CN(C)Cc2ccc(C(F)(F)F)cc2)Oc2c(NC(=O)Nc3ccccc3)cccc2C1=O	inactive: 13.8%
Cc1noc(C)c1S(=O)(=O)Nc1ccc2c(c1)C(=O)N([C@@H](C)CO)C[C@H](C)[C@H](CN(C)Cc1ccccc1)O2	inactive: 10.3%
CCCN1[C@@H]2c3ccc(C4=CCCC4)c(=O)n3C[C@@H]2[C@@H](CO)[C@@H]1C(=O)OC	inactive: 47.6%
C[C@@H]1CN([C@@H](C)CO)S(=O)(=O)c2ccc(C#Cc3ccccc3)cc2O[C@@H]1CN(C)C(=O)CN(C)C	inconclusive: 76.1%
COc1cccc(S(=O)(=O)Nc2ccc3c(c2)OC[C@@H](C)N(Cc2ccccc2F)C[C@H](C)[C@@H](OC)CN(C)C3=O)c1	inconclusive: 61.9%
C[C@H](CO)N1C[C@H](C)[C@@H](CN(C)Cc2ccc(-c3ccccc3)cc2)Oc2ncc(C#CCN(C)C)cc2C1=O	inconclusive: 96.9%
CN1C(=O)c2cc(NC(=O)c3cccs3)ccc2OC[C@H]2O[C@@H](CC(=O)NCCN3CCCCC3)CC[C@H]21	inactive: 41.1%
O=C(Nc1cccc(F)c1)N1CCCCN2[C@@H](CO)[C@@H](c3ccc(-c4ccncc4)cc3)[C@@H]2C1	inconclusive: 95.8%
CCc1cnc(N2[C@H](C#N)[C@@H](c3ccc(-c4cccc(F)c4)cc3)[C@@H]2CO)s1	inconclusive: 97.1%
Cc1ccc(S(=O)(=O)N(C)C[C@H]2OCCCC[C@@H](C)Oc3ccc(NS(=O)(=O)c4ccccc4)cc3C(=O)N([C@@H](C)CO)C[C@H]2C)cc1	inconclusive: 103%
COc1cccc(S(=O)(=O)N(C)C[C@H]2Oc3cc(C#CCC(C)C)ccc3S(=O)(=O)N([C@@H](C)CO)C[C@H]2C)c1	inconclusive: 72.7%
COc1ccc(S(=O)(=O)Nc2ccc3c(c2)C(=O)N([C@@H](C)CO)C[C@@H](C)[C@H](CN(C)S(=O)(=O)c2ccc(Cl)cc2)OCCCC[C@@H](C)O3)cc1	inconclusive: 97.7%

Structure (SMILES)	inhibition
C[C@@H]1CN([C@@H](C)CO)C(=O)c2cc(NC(=O)C3CCCCC3)ccc2O[C@@H]1CN(C)Cc1ccc(-c2ccccc2)cc1	inconclusive: 98.2%
O=C(C[C@H]1C=C[C@H](NS(=O)(=O)c2ccccc2)[C@@H](CO)O1)NCc1ccncn1	inactive: -26.1%
C[C@@H]1CN([C@@H](C)CO)C(=O)c2cc(N(C)C)ccc2O[C@H]1CN(C)CC1CCCCC1	active: 102%
Cc1ccc(S(=O)(=O)N(C)C[C@@H]2OCCCC[C@@H](C)Oc3ccc(NC(=O)Nc4ccccc4)cc3C(=O)N([C@@H](C)CO)C[C@H]2C)cc1	inactive: 46.4%
O=C(C[C@@H]1CC[C@@H]2[C@H](COC[C@H](O)CN2Cc2cccc(-c3ccncc3)c2)O1)N1CCN(c2ccccc2)CC1	inactive: 62.5%
CC(C)CC#Cc1ccc2c(c1)O[C@H](CN(C)Cc1ccncc1)[C@H](C)CN([C@@H](C)CO)S2(=O)=O	inconclusive: 104%
C[C@H]1CN([C@@H](C)CO)C(=O)c2ccccc2-c2ccccc2CO[C@@H]1CN(C)S(=O)(=O)c1ccc(C(F)(F)F)cc1	active: 105%
O=C(C[C@H]1CC[C@H]2[C@@H](COC[C@H](O)CN2C(=O)Nc2ccc(Cl)c(Cl)c2)O1)NCc1ccc(Cl)cc1	inconclusive: 97.8%
C[C@@H]1CN([C@@H](C)CO)C(=O)c2cc(C3=CCCC3)cnc2O[C@@H]1CN(C)C(=O)Nc1ccc(C(F)(F)F)cc1	inconclusive: 95.9%
COc1ccc(NC(=O)N2CCCCN3[C@@H](CO)[C@@H](c4ccc(-c5ccccc5F)cc4)[C@@H]3C2)cc1	inactive: 89.8%
O=S(=O)(Cc1ccccc1)N1CCCCN2[C@H](C1)[C@H](c1ccc(-c3ccccc3)cc1)[C@@H]2CO	active: 118%
OC[C@@H]1[C@H](c2ccc(-c3cccnc3)cc2)[C@@H]2CN(Cc3ccccn3)CCCCN12	inactive: 94.8%
C[C@@H]1CN([C@@H](C)CO)C(=O)c2cc(NC(=O)C3CCCCC3)ccc2O[C@@H](C)CCCCO[C@H]1CN(C)Cc1ccc(C(F)(F)F)cc1	inconclusive: 120%
Cc1cc(C(=O)Nc2cccc3c2O[C@@H](CN(C)Cc2ccc(C(=O)Nc4ccccc4N)cc2)[C@@H](C)CN([C@@H](C)CO)C3=O)n(C)n1	active: 101%
COc1ccc(CN(C)C[C@H]2Oc3ccc(NC(=O)c4ccncc4)cc3CC(=O)N([C@@H](C)CO)C[C@H]2C)cc1	inactive: 2.56%
O=S(=O)(c1ccccc1)N1CCCCN2[C@H](CO)[C@@H](c3ccc(C#Cc4cccnc4)cc3)[C@H]2C1	inconclusive: 96.8%
CCCC#Cc1ccc([C@@H]2[C@@H](CO)N3CCCCN(S(=O)(=O)c4ccccc4C)C[C@@H]23)cc1	active: 116%
C[C@@H]1CCCCO[C@@H](CN(C)C(=O)Nc2ccc3c(c2)OCO3)[C@H](C)CN([C@H](C)CO)C(=O)c2cc(NC(=O)NC3CCCCC3)ccc2O1	inconclusive: 101%
C[C@@H]1CN([C@H](C)CO)C(=O)c2cccc(NC(=O)c3ccncc3)c2O[C@H]1CN(C)Cc1ccc(C(=O)Nc2ccccc2N)cc1	active: 99.6%
